In PubChem BioAssay AID1508624 (National Center for Advancing Translational Sciences (NCATS), 2021):
The whole screen tested about 48,000 compounds, of which about 120 (0.25%) were called active. Another 4% or so got no clear call; they are omitted. The call rests on the fitted dose curve; in most records, active means well fitted activation curve with a large enough effect; inconclusive means small, poorly fitted or top-dose-only effect, or another doubt; inactive means no such curve, though single readings can be large or run the other way. Some of the results follow.

Assay: Primary qHTS for Identification of Small Molecule Activators of Huntingtin-Antisense Promoter Activity; further: nearly all actives have a fitted effect of over 55% in size
Conditions: HEK293 HTT-AS promoter firefly luciferase reporter, 24 h; series mostly up to 57.5 µM; activity change, positive = activation: at the top concentration
Outline: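 Firefly luciferase readout (Dual-Glo, 10 min RT) after 24 h, 37 °C compound exposure (final up to 57.5 uM) of HEK293 reporter cells cultured 24 h beforehand; PTC124 at 50 uM final as control inhibitor; activity scaled vehicle 0%, zero RLU -100%.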

Activity change, positive = activation, inactive:
Cc1c(CNC2CCCCC2)c(C(=O)O)c(C)n1Cc1ccc(Cl)cc1 -16.5%
Cc1ccc(Cn2c3ccccc3c3cnn(CC(=O)Nc4cc(Cl)ccc4C)c(=O)c32)cc1 -4.38%
O=C(CSc1n[nH]c(-c2ccccc2Cl)n1)NCCc1ccccc1 -15%
COc1ccc(N2CCN(C(=O)c3cccn3-c3nnc(N4CCCC4)s3)CC2)cc1 -5.77%
CCc1nn(CCCC(=O)NCc2ccc(OC(C)C)cc2)c(=O)c2cc3occc3n12 -5.96%
CCOc1cc(CNS(=O)(=O)c2ccc3c(c2)C(C)(C)C(=O)N3)cc(OCC)c1OCC -10.6%
CC(NC(=O)Cn1ccc2cc(S(=O)(=O)N3CCCCCC3)ccc21)c1ccccc1 (configuration not stated) -32.5%
COc1ccc(C)cc1NC(=O)Nc1nnc(N2CCCCC2)s1 23.1%
CCOC(=O)C1CCCN(c2nc3c(S(=O)(=O)c4ccc(CC)cc4)nnn3c3ccc(Cl)cc23)C1 (configuration not stated) 14.2%
Cc1c(C(=O)N2CCC(C)CC2)c(S(=O)(=O)N(Cc2ccccc2)C(C)(C)C)c(C)n1C -24.8%
CN1CCN(C(=O)C(=O)Nc2c3c(nn2-c2ccc(Cl)cc2)CSC3)CC1 -11.4%
CCOCCCn1c(=N)c(C(=O)NCc2cccnc2)cc2c(=O)n3ccccc3nc21 -2.33%
Cc1ccc(N2C(=O)CCSC23C(=O)N(Cc2ccccc2)c2ccccc23)cc1 (configuration not stated) -8.71%
Cn1c(=O)c(C(=O)O)nn(-c2ccccc2)c1=O -8.2%
Cc1ccc(NC(=O)Nc2nnc(N3CCCC3)s2)cc1C 21.7%
COC(=O)c1ccc(C(=O)OC)c(NC(=O)CN(c2ccccc2)S(=O)(=O)N(C)C)c1 -36.8%
COc1cccc(CNC(=O)CSC2=Nc3ccccc3N=C(c3ccc(F)cc3)C2)c1 -37.1%
CCOc1ccccc1CNC(=O)C1CCCN(c2nnc(C)c3c(C)n(-c4ccccc4)nc23)C1 (configuration not stated) -36.9%
COCCCNC(=O)CN1C(=O)c2cccnc2Sc2ccccc21 -4.36%
O=C(Nc1cccc(C(F)(F)F)c1)Nc1nnc(N2CCCCCC2)s1 0.64%
CC(=O)c1cccc(NC(=O)CN2C(=O)CCc3cc(S(=O)(=O)N4CCCCC4)ccc32)c1 -14.1%
COc1ccccc1N1CCN(C(=O)c2cc(-c3ccc(C)c(F)c3)on2)CC1 -15.3%
Cc1ccc(NC(=O)CSc2nc(-c3ccco3)cc(C(F)(F)F)n2)c(C)c1 -23.5%
COc1cccc2cc(C(=O)Nc3ccc(CC(=O)O)cc3)c(=O)oc12 -90.3%
CCCCN1CC(c2nc3ccccc3n2CCCCOc2cc(C)cc(C)c2)CC1=O (configuration not stated) -46%
CCOc1ccc(S(=O)(=O)N2Cc3ccccc3CC2C(=O)Nc2ccc(NC(C)=O)cc2)cc1 (configuration not stated) -18.5%
CCN(CC)CCNC(=O)C(=O)Nc1c2c(nn1-c1ccc(F)cc1)CSC2 -12.9%
CCN(C(=O)CCc1nc(-c2ccc(C)cc2)no1)c1cccc(C(F)(F)F)c1 -25.2%
CCc1ccc(NC(=O)CSc2nnc3[nH]c(=O)cc(-c4ccccc4)n23)cc1 34.1%
CCOC(=O)c1c(C)[nH]c(CCC(=O)Nc2ccccc2C(F)(F)F)c1C -16%
O=C(CCS(=O)(=O)c1cc2c(cc1Cl)NC(=O)CO2)NCCc1ccccc1 -7.15%
COc1ccc(C(=O)Nc2ccc(S(=O)(=O)Nc3cc(C)nc(C)n3)cc2)cc1 -3.09%
CCCS(=O)(=O)N1CC(=O)N(c2cccc(F)c2)C(C)(C(=O)NC2CCCCCC2)C1 (configuration not stated) -2.64%
COc1cc(CNc2ccc3[nH]c(=O)[nH]c3c2)ccc1OCc1ccc(F)cc1Cl -1.51%
COc1ccc(CN2CCc3c(c(=O)n4ncc(C(=O)N5CCN(c6ccccc6F)CC5)c4n3C)C2)cc1 -24.5%
COC(=O)c1ccc2c(=O)n3nc(Nc4ccc(F)cc4F)sc3nc2c1 7.49%
CS(=O)(=O)N(Cc1ccccc1)c1ccc(C(=O)Nc2cccc(Cl)c2)cc1 -47.8%
COc1ccc(CNC(=O)c2ccc3c(O)c(S(=O)(=O)c4ccccc4)c(=O)[nH]c3c2)cc1 -9.15%
Cc1cc(NS(=O)(=O)c2ccc(N)cc2)no1
Cc1cccc(N2CCN(C(=O)c3nn(C)c4c3CS(=O)(=O)c3ccccc3-4)CC2)c1C -26.6%
CCCCC1CCC(C(=O)N2CC(=O)Nc3ccc(C)cc3C2c2ccc(F)cc2)CC1 (configuration not stated) -25.2%
COc1ccc(Cn2ccc3nc(C)c(C(=O)N4CCN(c5cccc(OC)c5)CC4)cc3c2=O)cc1 -22%
COc1ccc(NC(=O)c2c(NC(=O)C(F)(F)F)sc3c2CCCCC3)cc1 -10.3%
COc1ccc(NC(=O)c2nc(S(C)(=O)=O)ncc2N(Cc2ccc(C)cc2)Cc2ccco2)cc1Cl -15%
COc1cccc(CNC(=O)c2cc(-c3ccc(Cl)s3)nc3ccccc23)c1 -7.83%
CCCCc1cc(=O)oc2cc(C)c3c(C(C)(C)C)coc3c12 -23.7%
COc1ccc(C)cc1NC(=O)N1CCN(S(=O)(=O)c2ccc3c(ccn3C)c2)CC1 -21%
Cc1ncc(CO)c2c1Oc1nc(-c3ccc(Cl)cc3)nc(SCC(=O)N3CCCCC3)c1C2 -12.4%
Cc1cccc(CSc2nc3c(sc4ccccc43)c(=O)n2CCC(=O)NC(C)C)c1 -1.78%
Cc1cccc(NC(=O)CSc2nc3ccc(NC(=O)COc4ccccc4C)cc3s2)c1 -14.6%
O=C(NCc1ccc(Cl)cc1)C1CCN(c2nn3cc(-c4ccc(F)cc4)nc3s2)CC1 11.4%
Cc1c(C(=O)OCCOc2ccccc2)[nH]c2c1C(=O)CC(c1ccc(C(C)(C)C)cc1)C2 (configuration not stated) -20.2%
CCn1c2c(c(=O)n3ncc(C(=O)Nc4cc(Cl)ccc4OC)c13)CN(Cc1ccc(OC)cc1)CC2 -18.7%
CCCNC(=O)CCC(=O)N1Cc2cccc(OC)c2Oc2ncccc21 -6.38%
CC1CN(C(=O)NCc2ccccc2)c2cc(Cl)ccc2O1 (configuration not stated) -8.98%
O=C(Cn1cc(C(=O)C(F)(F)F)c2ccccc21)N1CCCCCC1 -12.7%
CC1(C)N=C(SCc2ccc(F)cc2)c2ccccc2N1 6.48% [at 11.5 µM, percent change from vehicle, -100% = no light]
O=C(COc1ccc2ccccc2c1)NC1CC(=O)N(c2ccc(F)cc2)C1 (configuration not stated) -7.76%
Cc1ccccc1CN1c2ccccc2-c2nc(SCC(=O)c3ccccc3)ncc2S1(=O)=O 25.9%
CC1CCCCN1CCCNC(=O)c1cc(Sc2cccc(Cl)c2)nc2ccccc12 (configuration not stated) -12.8%
CCOc1ccccc1NC1(c2ccccc2)C(=O)c2ccccc2C1=O -19.3%
Cc1c(CNC2CCCCC2)c(C(=O)O)c(C)n1Cc1ccccc1F -18.2%
Cc1ccccc1OCc1nc2c3cnn(-c4cccc(F)c4)c3ncn2n1 -2.9%
O=C(CSc1nc2ncccc2[nH]1)Nc1cc(F)ccc1F -6.2%
O=C(CCn1c(=O)c2cccn2c2cccnc21)NCc1ccccc1Cl -3.18%
COc1cccc(N2CCN(C(=O)C3CCCN(S(=O)(=O)c4cccc5nsnc45)C3)CC2)c1 (configuration not stated) -40.8%
O=C(NCC(c1cccnc1)N1CCN(c2ccccc2F)CC1)C(=O)Nc1ccc(F)cc1F (configuration not stated) -8.82%
Cc1ccc(CNC(=O)CCc2c(C)nn(-c3ccc(N4CCOCC4)nn3)c2C)cc1 -2.88%
CCOc1ccc(C(=O)c2cn(CC(=O)Nc3ccc4c(c3)OCO4)c3ccc(OC)cc3c2=O)cc1 -15.4%
CCn1c(=O)n(-c2ccc3c(c2)OCO3)c2nc(-c3ccc(C(C)C)cc3)nc(C(N)=O)c21 0.478%
CCOc1ccc2c(c1)c(=O)c(C(=O)c1ccc(CC)cc1)cn2CC(=O)Nc1ccccc1OC -14.8%
COc1ccc(OC)c(NC(=O)Cn2c(=O)c3cccn3c3ccccc32)c1 12%
Cc1ccc(Cl)cc1NC(=O)CSc1nc2ccccc2c2nc(-c3ccccc3)nn12 -4.82%
CCOC(=O)C1CCN(C(=O)c2nn(-c3ccc(OC)c(Cl)c3)c(=O)c3c2c2ccccc2n3C)CC1 -6.73%
Cc1ccc(S(=O)(=O)c2cn(CC(=O)Nc3cccc(Cl)c3)c3ccccc3c2=O)cc1 -30.7%
CCn1c2ccccc2c2cc(CN3CCN(Cc4cc(OC)c(O)c(OC)c4)CC3)ccc21 -6.18%
COc1ccc(N2CCN(c3ccc(-c4nc(-c5ccccc5)no4)cc3[N+](=O)[O-])CC2)cc1 -43.7%
O=C(Nc1cccc(Cl)c1Cl)c1ccc2c(c1)N(Cc1cccc(Cl)c1)C(=O)c1ccccc1S2=O (configuration not stated) -9.96%
COc1cc2[nH]c(=O)n(Cc3ccc(C(=O)N4CCN(c5ccc(Cl)cc5)CC4)cc3)c(=O)c2cc1OC -49.9%
Cc1ccc(C)c(NC(=O)Cn2nc(C)c3nn(-c4ccc(Cl)cc4)c(C)c3c2=O)c1 -26.9%
Cc1ccc(N(Cc2cccs2)C(=O)C(C)Oc2ccc(Cl)c(C)c2)cc1 (configuration not stated) -34.6%
Cc1ccc(NC(=O)c2sc3ncn(Cc4cccc(F)c4)c(=O)c3c2C)c(Br)c1 8.85%
CCOc1ccccc1NC(=O)CCCc1nc(-c2ccccc2Cl)no1 -17.3%
COc1ccc(CNC(=O)CCS(=O)(=O)c2cc(Br)cc3c2N(C(C)=O)C(C)C3)cc1 (configuration not stated) -14.3%
CCOc1ccc(CCNC(=O)c2cc3c(=O)n(CC)c4ccccc4c3s2)cc1OCC -15.8%
CCc1cccc(NC(=O)CSc2nncn3c2cc2sccc23)c1 -24.8%
COc1ccc(S(=O)(=O)NCCSc2nnnn2-c2ccccc2)cc1OC -27.9%
Cc1ccc(Cl)cc1N1CCN(C(=O)CN2C(=O)COc3ccc(S(=O)(=O)N4CCCCCC4)cc32)CC1 -37.9%
CC(C)CCNC(=O)c1ccc2c(c1)NC(=O)C(C(C)C)N2 (configuration not stated) -7.19%
Cc1c(C(=O)O)c(O)cc2c1C(=O)c1c(O)c([C@@H]3O[C@H](CO)[C@@H](O)[C@H](O)[C@H]3O)c(O)c(O)c1C2=O -26.8%
Cc1c(C)n(Cc2ccccc2)c2ccc(C(=O)N3CCN(c4ccc(F)cc4)CC3)cc12 -14.6%
Cn1cnc(S(=O)(=O)N2CCCC(C(=O)NCc3ccc(Cl)cc3)C2)c1 (configuration not stated) -13.8%
